Source: PubChem BioAssay AID504466 (National Center for Advancing Translational Sciences (NCATS), 2011)
In all, about 330,000 compounds went through this assay and about 4,200 (1.3%) were called active. Inconclusive means that the source gave no clear call. Such entries were picked first, then a sample of the others. Calls come from the whole dose curve; as a rule, active = well fitted activation curve with a large enough effect; inconclusive = small, poorly fitted or top-dose-only effect; inactive = no such curve, though single readings can be large or run the other way. Potencies of inconclusive entries are doubtful fits and often do not repeat.

Assay: qHTS screen for small molecules that induce genotoxicity in human embryonic kidney (HEK293T) cells expressing luciferase-tagged ELG1; note: nearly all actives have a fitted effect of over 60% in size
Settings: HEK293T ELG1-luciferase reporter, luminescence, 16 h; series mostly up to 46 µM
Summary of the method: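 After overnight (16 hr) compound treatment at 37 °C, ELG1-luciferase HEK293T cells were lysed with ONE-Glo; luminescence quantified 30 min later at room temperature.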
Potency is the fitted concentration of half-maximal effect; tags give direction and shape of the fitted curve.

Compound | Potency
COc1ccc(-c2noc(CCC(=O)N3CCN(c4cccc(C)c4)CC3)n2)cc1 | inactive
O=C(Cc1cccc2ccccc12)Nc1cccnc1 | inactive
Oc1ccc(/C=N/N2CCCCC2)cc1O | inconclusive: 16.4 µM [activator, single point]
CCn1c(=O)cc(SCC(=O)N2CCOCC2)c2ccccc21 | inconclusive: 16.4 µM [activator, partial curve]
CCC(=O)Nc1ccc2nn(-c3ccc(F)cc3)nc2c1 | active: 1.46 µM
COc1cccc(C(=O)NC(=O)Nc2cc(C)[nH]n2)c1 | inconclusive: 6.51 µM [activator, partial curve]
CC(C)(C)c1ccc(C(=O)NCc2cccnc2)cc1 | inconclusive: 20.6 µM [activator, partial curve, poor fit]
COc1ccc(-n2c(C)cc(C(=O)CN3C(=O)NC4(CCCc5sccc54)C3=O)c2C)cc1 (stereo not drawn) | inactive
CCc1ccc(C(=O)COC(=O)c2cccs2)cc1 | active: 4.47 µM
O=C(OC1CCOC1=O)c1ccc(-c2nc3ccccc3s2)s1 (stereo not drawn) | inconclusive: 13 µM [activator, partial curve, poor fit]
Nc1ccc([N+](=O)[O-])cc1C(=O)NNC(=O)c1ccco1 | inactive
COC(=O)Cc1c(C)nc2nc(-c3ccccc3)[nH]n2c1=O | inactive
Cc1ccc(C(=O)NCCCc2ccccc2)c(C)c1 | active: 16.4 µM
c1ccc(CCNc2nc3ccccc3s2)cc1 | inconclusive: 20 µM [activator, single point]
O=C(O)c1cc(N/N=C/c2ccc(-c3ccc(F)cc3)o2)ccc1Cl | inconclusive: 16.4 µM [activator, partial curve, poor fit]
Cc1ccc(NC(=O)CN(C)CC(=O)Nc2c(C)cccc2C)c(Br)c1 | inactive
CCNC(=S)Nc1ccc(-c2nc3ccccc3[nH]2)cc1 | inconclusive: 8.2 µM [activator, partial curve]
C/C(=N\NC(=O)c1c(C)nc2ccccn12)c1ccco1 | inconclusive: 12.6 µM [activator, partial curve]
CC1CN(C(=O)c2cccc(C(=O)N3CC(C)OC(C)C3)c2)CC(C)O1 (stereo not drawn) | inactive
COC(=O)CSc1ccc(-c2nc3ccc(C)cc3[nH]2)cn1 | inconclusive: 15.8 µM [activator, partial curve, poor fit]
O=c1cc(-c2ccc(O)cc2)oc2c1ccc1ccccc12 | inconclusive: 16.4 µM [activator, partial curve, poor fit]
Cc1ccc(N2CCN(C(=O)c3ccccc3F)CC2)c(C)c1 | inconclusive: 16.4 µM [activator, single point]
N#Cc1c2n(c3c(=O)n(Cc4ccc(Cl)cc4)cnc13)CCCCC2 | inconclusive: 18.4 µM [activator, partial curve, poor fit]
CC(=O)c1cccc(S(=O)(=O)NCC(c2ccco2)N2CCCCC2)c1 (stereo not drawn) | inactive

Compound | Potency
O=C(NC(=S)N1CCN(c2ccc(F)cc2)CC1)c1cccs1 | inactive
Cc1nnc(SCc2nc3ccccc3s2)n1N | active: 13 µM
CC1CN(S(=O)(=O)c2cccc(C(=O)NCCC3=CCCCC3)c2)CC(C)O1 (stereo not drawn) | inconclusive: 20.6 µM [activator, single point]
C=Cc1cccc(NC(=O)COc2ccccc2)c1 | inconclusive: 32.6 µM [activator, partial curve, poor fit]
NS(=O)(=O)c1cccc(NC(=O)C(Cc2ccccc2)NC(=O)c2ccccc2)c1 (stereo not drawn) | inconclusive: 23.1 µM [activator, partial curve, poor fit]
COc1cc2c(cc1OC)C(C)N(C(=O)c1ccc(Cl)c(S(=O)(=O)N3CCCCC3)c1)CC2 (stereo not drawn) | inactive
CCOC(=O)c1ccc(NC(=O)Nc2cccc(C)n2)cc1 | inconclusive: 18.3 µM [activator, single point]
Cc1ccc(-c2nc(-c3ccccc3)no2)c(Cl)c1 | active: 0.259 µM
Cc1ccc(C)c(Nc2nc(N)c3ccccc3n2)c1 | inconclusive: 2.59 µM [activator, partial curve]
O=C(CNc1ccc(F)cc1)c1ccccc1 | inconclusive: 29.1 µM [activator, partial curve, poor fit]
CCn1nnnc1SCC(=O)c1ccc(C)cc1C | inconclusive: 5.17 µM [activator, partial curve, poor fit]
O=C(CSc1nc2c(cnn2-c2ccccc2)c(=O)[nH]1)N1CCOCC1 | inactive
COc1cc(OC)c(C(=O)Nc2ccc3ccccc3c2)cc1OC | inconclusive: 10.3 µM [activator, partial curve]
Cc1nc(NC(=O)c2ccc3c(c2)OCO3)ccc1Br | inconclusive: 3.66 µM [activator, full curve, poor fit]
CCN(CC)CCn1c(NS(=O)(=O)c2ccc(Cl)cc2)nc2ccccc21 | inactive
O=C(Nc1ccccn1)c1cc2ccccc2cc1O | active: 2.31 µM
Cc1cc(Nc2ccccc2C(=O)O)nc2nc3ccccc3c(=O)n12 | inconclusive: 32.6 µM [activator, partial curve, poor fit]
Oc1ccc(C2=NNC(=NCc3ccc4c(c3)OCO4)SC2)c(O)c1 | inconclusive: 32.6 µM [activator, partial curve, poor fit]
O=C(Cn1nc(C(=O)O)c2ccccc2c1=O)Nc1nc(-c2ccccc2)cs1 | inconclusive: 18.3 µM [activator, partial curve, poor fit]
CC(=O)NCCN=Cc1sc2ccccc2c1O | inactive
O=C(Nc1ccccc1F)c1ccc(CSc2ncccn2)cc1 | inconclusive: 7.3 µM [activator, partial curve]
Cc1nc(-c2ccc(NC(=O)C3CCCCC3)cc2)cs1 | active: 2.31 µM
C/C(=N/N=C/c1ccccc1O)c1ccccc1O | active: 6.51 µM
c1ccc(OCc2nc3ccccc3s2)cc1 | inconclusive: 10 µM [activator, partial curve, poor fit]
